This note sets out measurements from the supplement of paper PMC4723716.

For the assay, the system named is Plasmodium falciparum NF54 stage V gametocytes. The assay is described as follows: viability index relative to DMSO control (fraction); higher = less gametocyte killing. The conditions noted are these: 2.5 µM, incubation time: 72 h. A digest of the protocol: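 Gametocytes (P. falciparum NF54, stage V) were treated with compound at 2.5 µM for 72 hr at 37°C in low oxygen, in serum-free medium at 0.75% gametocytemia and 1.25% hematocrit. Counts of 20–70 µm2 red particles, taken from one field per well after MitoTracker Red CMXRos with saponin, were divided by the plate mean of solvent-only wells. This ratio is the viability index.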

Where [1] appears, read: library set: Broad Institute DOS.

± gives the uncertainty stated by the source. The full ranking holds about 9,900 compounds; the median of “viability index relative to DMSO control” is about 1, and the lowest 2% start at about 0.85. This is one part of the list.

The compound `COc1cccc(S(=O)(=O)N[C@@H]2CC[C@H](CC(=O)NC3Cc4ccccc4C3)O[C@@H]2CO)c1` registered a viability index under setting [1] of 0.943 ± 0.055.

As for `CCCNC(=O)N1[C@H](C#N)[C@H](c2ccc(-c3cccc(OC)c3)cc2)[C@@H]1CO`, the viability index (library set: Broad Institute Blood Stage) was determined as 0.866 ± 0.032.

`Cn1cnc(S(=O)(=O)N2[C@@H]3CNC[C@H]2[C@@H]3c2ccc(/C=C/c3ccccc3)cc2)c1`: the viability index under setting [1] amounted to 1.12 ± 0.063.

The compound `O=C(C[C@@H]1CC[C@@H]2NC[C@H](O)COC[C@H]2O1)N1CCc2ccccc2C1` had a viability index under setting [1] of 1.07 ± 0.15.

For `O=C(Cc1ccccc1)N1CC[C@H]2[C@H](CO)Nc3ccc(C#Cc4cccc(F)c4)cc3[C@H]21`, the viability index under setting [1] worked out at 1.13 ± 0.028.

Under setting [1], `CO[C@@H]1CN(C)C(=O)c2ccc(NC(=O)NC3CCCCC3)cc2OC[C@@H](C)NC[C@H]1C` yielded a viability index of 1.01 ± 0.11.

With `CS(=O)(=O)Nc1ccc2c(c1)[C@@H]1C[C@H](CC(=O)NCc3cc(F)ccc3F)O[C@H](CO)[C@@H]1O2`, under setting [1], the viability index was determined as 1.09 ± 0.08.

For `C[C@H](NC(=O)C[C@@H]1C=C[C@H](NS(=O)(=O)c2cccc(F)c2)[C@H](CO)O1)c1ccccc1`, under setting [1], the viability index was found to be 1.08 ± 0.11.

Regarding `COc1ccc(C[C@H]2CCn3nncc3COCCCNC2=O)cc1`, under setting [1], the viability index came out at 1.04 ± 0.017.

Under setting [1], `CC(=O)N1[C@H](CN(CC(C)C)C(=O)c2ccccn2)[C@@H](c2ccccc2)[C@@H]1CO` yielded a viability index of 1.09 ± 0.021.

With `COC(=O)C[C@@H]1CC[C@@H]2[C@H](COc3ccc(NC(=O)c4ccc(C(F)(F)F)cc4)cc3C(=O)N2C)O1`, under setting [1], the viability index was determined as 1.02 ± 0.021.

The compound `O=C(C[C@@H]1CC[C@H](NC(=O)c2ccc(F)cc2)[C@H](CO)O1)NCCc1ccccc1` displayed a viability index under setting [1] of 1.1 ± 0.14.

Under setting [1], `C[C@@H]1CN([C@H](C)CO)C(=O)c2cc(NC(=O)Cn3cnnn3)ccc2O[C@H]1CN(C)Cc1ccc(C(=O)Nc2ccccc2N)cc1` registered a viability index of 1.11 ± 0.014.

Compound `CCNC(=O)[C@@H]1[C@@H](CO)[C@@H]2Cn3c(ccc(/C=C/c4ccccc4)c3=O)[C@H]1N2C(=O)c1ccncc1` came in with a viability index under setting [1] of 1.059 ± 0.0075.

Compound `CCS(=O)(=O)N1CC(=O)N2[C@H](CO)[C@@H](c3ccc(C#CC4CCCCC4)cc3)[C@@H]2C1` yielded a viability index under setting [1] of 1.07 ± 0.043.

The compound `C[C@H](NC(=O)[C@@H]1[C@@H](CO)[C@@H]2Cn3c(cccc3=O)[C@H]1N2C(=O)C1CCC1)c1ccccc1` displayed a viability index under setting [1] of 1.12 ± 0.028.

Under setting [1], `COC(=O)C[C@@H]1CC[C@H]2[C@@H](COc3ccc(NS(=O)(=O)c4ccc(C)cc4)cc3C(=O)N2C)O1` displayed a viability index of 1.07 ± 0.083.

`COc1ccc(S(=O)(=O)Nc2ccc3c(c2)[C@H]2C[C@H](CC(=O)N(C)C)O[C@@H](CO)[C@H]2O3)cc1` gave a viability index under setting [1] of 1.11 ± 0.014.

In turn, `COc1ccc(S(=O)(=O)N(C)C[C@H]2Oc3ccc(NC(=O)Cc4cn(C)c5ccccc45)cc3C(=O)N([C@@H](C)CO)C[C@H]2C)cc1` had a viability index under setting [1] of 0.989 ± 0.086.

With `CS(=O)(=O)N1C[C@H](O)COC[C@H]2O[C@@H](CC(=O)NCc3ccccc3)CC[C@@H]21`, the viability index under setting [1] is 1.1 ± 0.096.

The compound `COCC(=O)Nc1ccc2c(c1)[C@@H]1C[C@H](CC(=O)N3CCOCC3)O[C@@H](CO)[C@@H]1O2` showed a viability index under setting [1] of 1.158 ± 0.0067.

In the case of `CS(=O)(=O)N1[C@H](CO)[C@@H](c2ccc(C#Cc3cccc(F)c3)cc2)[C@@H]1C#N`, under setting [1], the viability index was found to be 1.02 ± 0.017.

Regarding `N#Cc1cccc(-c2ccc([C@@H]3[C@H]4CN(Cc5ccccc5F)CCCCN4[C@H]3CO)cc2)c1`, the viability index under setting [1] was determined as 0.968 ± 0.025.

Turning to `Cc1noc(C)c1NC(=O)Nc1ccc2c(c1)C(=O)N(C)[C@H]1CC[C@@H](CC(=O)N[C@H]3CCN(Cc4ccccc4)C3)O[C@@H]1CO2`, the viability index under setting [1] was 1.13 ± 0.09.

Turning to `CN(C[C@H]1[C@@H](c2ccccc2)[C@@H](CO)N1Cc1ccccn1)S(C)(=O)=O`, under setting [1], the viability index worked out at 1.02 ± 0.058.

In turn, `COc1ccc(NC(=O)Nc2cccc3c2O[C@@H](CN(C)Cc2ccc(C(=O)O)cc2)[C@H](C)CN([C@@H](C)CO)C3=O)cc1` yielded a viability index under setting [1] of 0.978 ± 0.065.

With `COc1cccc(-c2ccc([C@H]3[C@H]4CNC[C@@H]3N4Cc3nccs3)cc2)c1`, the viability index under setting [1] turned out to be 1.13 ± 0.065.

Turning to `O=C(NCc1cccc(F)c1)[C@H]1[C@H](CO)[C@H]2Cn3c(ccc(-c4ccncc4)c3=O)[C@@H]1N2CC1CC1`, under setting [1], the viability index stood at 1.07 ± 0.033.

Turning to `O=C(O)C[C@@H]1C=C[C@@H](NC(=O)Nc2cc(F)ccc2F)[C@@H](CO)O1`, the viability index under setting [1] worked out at 1.056 ± 0.0094.

The compound `N#C[C@@H]1[C@H](c2ccccc2C2=CCCC2)[C@@H](CO)N1C(=O)Cc1ccncc1` came in with a viability index under setting [1] of 1.16 ± 0.099.

`C[C@@H]1CCCCO[C@H](CN(C)C(=O)Nc2ccccc2)[C@H](C)CN([C@@H](C)CO)C(=O)c2cc(NC(=O)Nc3ccccc3)ccc2O1` came in with a viability index under setting [1] of 1.05 ± 0.054.

`C[C@H](CO)N1C[C@H](C)[C@@H](CN(C)Cc2ccc3cccnc3c2)OCc2cnnn2CCCC1=O`: under setting [1], the viability index is 1.07 ± 0.014.

Regarding `C[C@H](CO)N1C[C@H](C)[C@@H](CN(C)S(=O)(=O)c2ccc(Oc3ccccc3)nc2)OCc2cnnn2CCCC1=O`, the viability index under setting [1] was 1.04 ± 0.038.

In turn, `C[C@H]1CC(=O)N[C@@H](c2ccccc2)C/C=C\C[C@H](c2ccccc2)NC1=O` yielded a viability index under setting [1] of 1.014 ± 0.0056.

As for `O=C(c1ccccn1)N1CC[C@H]2[C@H](CO)Nc3ccc(Br)cc3[C@H]21`, the viability index under setting [1] came out at 1.14 ± 0.023.

In turn, `CO[C@@H]1CN(C)C(=O)c2cc(NC(C)=O)ccc2OC[C@@H](C)N(S(C)(=O)=O)C[C@H]1C` had a viability index under setting [1] of 1.02 ± 0.046.

For the compound `C[C@@H]1CCCCO[C@H](CN(C)Cc2ccc(C(=O)O)cc2)[C@@H](C)CN([C@H](C)CO)C(=O)c2cc(N(C)C)ccc2O1`, under setting [1], the viability index came to 1.144 ± 0.0068.

In turn, `CCC(=O)N1[C@H](CO)[C@@H](c2ccccc2)C12CN(C(=O)c1ccncc1)C2` gave a viability index under setting [1] of 1.09 ± 0.069.

Consider `O=C(Nc1ccccc1)N1C[C@@H]2N[C@H](C1)[C@@H]2c1ccc(-c2cccnc2)cc1`, for which the viability index under setting [1] worked out at 1.11 ± 0.056.

`CN1CCN(C(=O)[C@@H]2[C@@H](CO)[C@@H]3Cn4c(cccc4=O)[C@@H]3N2Cc2cc(F)ccc2F)CC1` came in with a viability index under setting [1] of 0.957 ± 0.0097.

Under setting [1], `C[C@@H](NC(=O)C[C@@H]1C[C@@H]2c3cc(NS(=O)(=O)c4ccc(F)cc4)ccc3O[C@@H]2[C@@H](CO)O1)c1ccccc1` registered a viability index of 1.09 ± 0.052.

Consider `CCCC(=O)N1CC[C@@]2(CC1)CN([C@@H](CO)c1[nH]c3cc(OC)ccc3c21)C(=O)Cc1ccccn1`, for which the viability index under setting [1] is 0.947 ± 0.12.

Under setting [1], `Cc1noc(C)c1S(=O)(=O)N(C)C[C@@H]1OCCCC[C@H](C)Oc2ccc(NC(=O)CCC(F)(F)F)cc2C(=O)N([C@H](C)CO)C[C@H]1C` returned a viability index of 0.984 ± 0.041.

The compound `COc1ccccc1S(=O)(=O)N1CC[C@H]2[C@H](CO)Nc3ccc(-c4ccc(C#N)cc4)cc3[C@H]21` came in with a viability index under setting [1] of 1.02 ± 0.077.

As to `Cc1noc(C)c1C(=O)N(C)C[C@@H]1OCc2ccccc2-c2ccccc2C(=O)N([C@@H](C)CO)C[C@H]1C`, under setting [1], the viability index was determined as 1.01 ± 0.054.
